# Data published in the supplement of paper PMC4967469.
# Lines with a small IC50 respond at low doses; a fit beyond the top or the lowest dose is shown as a bound at that dose. The AUC spans the tested range (256-fold, ending at the top dose) of the same fit; values near 1 show little effect. For some assays here: A top dose marked as inferred is not printed in the source and was worked back from the curve model.
# How the values were obtained:
# Experiment in all cases: Viability of human cancer cell lines after 72 h of drug (GDSC screen)
# XL-184 = compound: COc1cc2nccc(Oc3ccc(NC(=O)C4(C(=O)Nc5ccc(F)cc5)CC4)cc3)c2cc1OC [XL-184]; details: top dose 5.12 µM; top dose inferred
# Protocol: (§1)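 Human cancer cell lines in 384-well plates, medium with 10% serum, drug for 72 h over a 256-fold dose range (nine 2-fold or five 4-fold steps up to the top dose). Adherent lines were fixed and stained with the nucleic acid dye Syto60, suspension lines read with resazurin; signal relative to control wells, capped at 0 and 100%. One two-parameter sigmoid per drug and line, fitted in a mixed model over all curves with the slope shared within a line.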
# AG-014699 = compound: CNCc1ccc(-c2[nH]c3cc(F)cc4c3c2CCNC4=O)cc1 [AG-014699]; details: top dose 5 µM; top dose inferred
# Protocol: as §1
# Gefitinib = compound: COc1cc2ncnc(Nc3ccc(F)c(Cl)c3)c2cc1OCCCN1CCOCC1 [Gefitinib]; details: top dose 0.5 µM
# Protocol: as §1
# Phenformin = compound: N=C(N)NC(=N)NCCc1ccccc1 [Phenformin]; details: top dose 4000 µM; top dose inferred
# Protocol: as §1
# Vinorelbine = compound: CCC1=C[C@@H]2CN(C1)Cc1c([nH]c3ccccc13)[C@@](C(=O)OC)(c1cc3c(cc1OC)N(C)[C@H]1[C@@](O)(C(=O)OC)[C@H](OC(C)=O)[C@]4(CC)C=CCN5CC[C@]31[C@@H]54)C2 [Vinorelbine]; details: top dose 0.064 µM; top dose inferred
# Protocol: as §1
# WHI-P97 = compound: COc1cc2ncnc(Nc3cc(Br)c(O)c(Br)c3)c2cc1OC [WHI-P97]; details: top dose 10.24 µM; top dose inferred
# Protocol: as §1
# NU-7441 = compound: O=c1cc(N2CCOCC2)oc2c(-c3cccc4c3sc3ccccc34)cccc12 [NU-7441]; details: top dose 2 µM; top dose inferred
# Protocol: as §1
# EHT 1864 = compound: O=c1cc(CN2CCOCC2)occ1OCCCCCSc1ccnc2cc(C(F)(F)F)ccc12 [EHT 1864]; details: top dose 10 µM; top dose inferred
# Protocol: as §1
# QL-XI-92 = compound: C=CC(=O)Nc1cc(NC(=O)c2ccc(C)c(NC(=O)c3ccno3)c2)cc(C(F)(F)F)c1 [QL-XI-92]; details: top dose 10.24 µM; top dose inferred
# Protocol: as §1
Cell Line,AUC (XL-184),IC50 (XL-184),AUC (AG-014699),IC50 (AG-014699),AUC (Gefitinib),IC50 (Gefitinib),AUC (Phenformin),IC50 (Phenformin),AUC (Vinorelbine),IC50 (Vinorelbine),AUC (WHI-P97),IC50 (WHI-P97),AUC (NU-7441),IC50 (NU-7441),AUC (EHT 1864),IC50 (EHT 1864),AUC (QL-XI-92),IC50 (QL-XI-92)
"P12-ICHIKAWA (T-cell lymphoblastic leukaemia, suspension)",0.978,> 5.12 µM,0.994,> 5 µM,0.994,> 0.5 µM,0.418,158 µM,0.638,0.00876 µM,0.978,> 10.2 µM,0.994,> 2 µM,0.908,8.24 µM,0.969,> 10.2 µM
"PA-1 (ovary, adherent)",0.872,3.16 µM,0.863,2.87 µM,0.99,> 0.5 µM,0.576,384 µM,0.457,–,0.93,> 10.2 µM,0.972,> 2 µM,0.953,> 10 µM,0.848,5.24 µM
"PA-TU-8902 (pancreas, adherent)",0.919,> 5.12 µM,0.936,> 5 µM,0.969,> 0.5 µM,0.589,458 µM,0.784,0.0323 µM,0.912,> 10.2 µM,0.982,> 2 µM,0.955,> 10 µM,0.926,> 10.2 µM
"PANC-02-03 (pancreas, adherent)",0.82,3.73 µM,0.958,> 5 µM,0.903,> 0.5 µM,0.576,422 µM,0.774,0.0304 µM,0.787,5.44 µM,0.887,> 2 µM,0.961,> 10 µM,0.972,> 10.2 µM
"PANC-03-27 (pancreas, adherent)",0.839,3.18 µM,0.985,> 5 µM,0.921,> 0.5 µM,0.584,419 µM,0.503,0.00408 µM,0.955,> 10.2 µM,0.954,> 2 µM,0.982,> 10 µM,0.916,> 10.2 µM
"PANC-04-03 (pancreas, adherent)",0.951,> 5.12 µM,0.932,> 5 µM,0.923,> 0.5 µM,0.91,> 4000 µM,0.919,> 0.064 µM,0.916,> 10.2 µM,0.94,> 2 µM,0.872,> 10 µM,0.967,> 10.2 µM
"PC-14 (lung adenocarcinoma, adherent)",0.927,> 5.12 µM,0.957,> 5 µM,0.811,0.23 µM,0.844,2420 µM,0.535,0.00494 µM,0.801,4.36 µM,0.988,> 2 µM,0.955,> 10 µM,0.954,> 10.2 µM
"PCI-4B (head and neck, adherent)",0.946,> 5.12 µM,0.909,> 5 µM,0.581,0.0514 µM,0.652,642 µM,0.504,0.0041 µM,0.935,> 10.2 µM,0.94,> 2 µM,0.913,> 10 µM,0.912,> 10.2 µM
"PCI-6A (head and neck, adherent)",0.861,4.22 µM,0.968,> 5 µM,0.575,0.0499 µM,0.782,1630 µM,0.41,0.00228 µM,0.983,> 10.2 µM,0.926,> 2 µM,0.965,> 10 µM,0.978,> 10.2 µM
"PCI-15A (head and neck, adherent)",0.983,> 5.12 µM,0.963,> 5 µM,0.855,0.404 µM,0.981,> 4000 µM,0.708,0.0155 µM,0.988,> 10.2 µM,0.881,> 2 µM,0.94,> 10 µM,0.97,> 10.2 µM
"PCI-30 (head and neck, adherent)",0.981,> 5.12 µM,0.945,> 5 µM,0.968,> 0.5 µM,0.954,> 4000 µM,0.912,> 0.064 µM,0.978,> 10.2 µM,0.971,> 2 µM,0.961,> 10 µM,0.973,> 10.2 µM
"PE/CA-PJ15 (head and neck, adherent)",0.959,> 5.12 µM,0.976,> 5 µM,0.893,> 0.5 µM,0.815,2430 µM,0.922,> 0.064 µM,0.862,9.93 µM,0.92,> 2 µM,0.948,> 10 µM,0.986,> 10.2 µM
"PL4 (pancreas, adherent)",0.881,> 5.12 µM,0.986,> 5 µM,0.981,> 0.5 µM,0.78,1700 µM,0.823,0.0393 µM,0.982,> 10.2 µM,0.971,> 2 µM,0.987,> 10 µM,0.977,> 10.2 µM
